Results: the supplement of paper PMC3334620
Whole data set: some 33,000 sequences, median “E-score (-0.5 to 0.5)” near -0.013, cut for the highest 2% near 0.3. Some of the results follow.

Target: T1, Msn1 (UniProt P22148)
T1 sequence: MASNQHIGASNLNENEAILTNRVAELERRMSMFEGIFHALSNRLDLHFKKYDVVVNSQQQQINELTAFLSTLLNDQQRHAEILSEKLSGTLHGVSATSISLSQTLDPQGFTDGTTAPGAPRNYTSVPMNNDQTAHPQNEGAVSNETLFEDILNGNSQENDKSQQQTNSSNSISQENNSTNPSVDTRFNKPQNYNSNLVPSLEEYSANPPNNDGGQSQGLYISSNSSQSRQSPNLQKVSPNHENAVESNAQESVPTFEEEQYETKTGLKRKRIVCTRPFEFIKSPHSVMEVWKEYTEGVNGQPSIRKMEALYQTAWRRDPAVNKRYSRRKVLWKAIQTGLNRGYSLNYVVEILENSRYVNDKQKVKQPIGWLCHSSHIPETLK
Experiment: PBM E-score (8-mer binding enrichment) (E-score (-0.5 to 0.5)); higher = stronger / more preferred TF binding; most listed sequences are background and not binding sites
Conditions: protein concentration: 200 nM; construct: GST-full length
Method in brief: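 PURExpress in vitro transcription/translation supplied GST-tagged yeast transcription factors, either full-length or DNA-binding domain. Applied at about 100-200 nM to universal all-10-mer Agilent arrays double-stranded by primer extension, the bound protein was detected with fluorescent anti-GST. E-scores, modified Wilcoxon-Mann-Whitney statistics, were given by the Universal PBM Analysis Suite to ungapped eight-base words pooled with their reverse complements after masliner normalisation.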

Sequence	PBM E-score
GCCCGCGA	-0.0477
CATATCGG	0.0952
AGTTCCCA	0.0695
ACAGGTGA	-0.0906
AGGGTCCG	-0.204
CTTCTCCA	-0.166
CAAATATA	0.159
CAGGACGC	0.00853
TGTGTCAA	0.0135
CGCGATGC	-0.247
CAGGTCGA	-0.00157
ACGAAACC	0.0241
AACTCGTC	0.0439
ACTTCTCG	0.103
AAGACTGT	-0.113
GGATTCGA	-0.0658
AAGTTGAG	0.055
AGAAAAAA	0.169
ATCCTTGG	0.0526
CCATTTAA	0.057
CACTCAGC	-0.133
GCACCGAA	0.0642

Sequence	PBM E-score
AATTCGAG	0.114
AGGGGCAA	-0.174
AAGTGATG	-0.0462
AGTGTTGA	0.047
ATCCATTC	0.0746
AAAGCGAA	0.0314
CATTGGGG	-0.125
CAGGGTTC	-0.0341
AGTCTAGG	-0.217
CGTACTGC	0.0272
GGTATTAC	0.0172
GGGACCGA	0.0171
AAACAAGG	-0.141
AATACCCA	-0.0704
GTAAGACA	0.305
TATTTAAA	0.136
AGTTCCAA	0.0681
AATTGCAC	-0.0279
CGCATGCA	0.0245
AGGCCGTA	-0.0196
AGCGGTGA	-0.0747
AGTAATAA	0.155

Sequence	PBM E-score
ACTAAGAG	0.0641
CAGAACAG	-0.239
GATTTCGA	-0.0823
GAAATGCC	0.00283
AGAAAGAC	-0.00893
AATAGTGC	-0.00646
CAGTACAC	0.252
CTACATCC	-0.0147
CATAAGTC	0.264
CCCCAACC	-0.085
GGACGTCC	0.263
CCCGGGAG	-0.147
GACCAATC	0.0895
ACTGCTCT	0.0249
GTACTGCA	0.0551
GTGTCAGA	0.232
GACGTGCC	-0.23
TCCCTGCA	-0.0437
GTTGAGAA	-0.0356
ATTAACGG	0.0729
ATGGCCTA	0.00251
AGGGGGTC	-0.332

Sequence	PBM E-score
CTATGCAG	0.0179
AAAATTGT	0.357
AAGAGGAT	-0.127
ACAAGATC	0.0398
GAGGGCAA	-0.129
TACTGGCA	-0.118
AACCTACA	0.0149
CACCTAGA	-0.147
TACTCGGA	0.223
ATGCGACG	-0.249
AGTCATTC	0.00351
AGGAACAC	0.0604
CTTACGAA	0.0988
AGGTAGTA	-0.056
ACGCAGCG	-0.285
CAGCCCGA	-0.173
ATTCATCA	-0.0736
ACAGCCAG	-0.0522
ACTCTTCC	-0.113
CGATGGAA	-0.137
